# Laboratory results reported in the supplement of paper PMC3334620.
# Over roughly 33,000 sequences, “E-score (-0.5 to 0.5)” has its median near -0.035; the highest 2% begin near 0.35. Some of the results follow.
# Target: T1, Pdr3 (UniProt P33200)
# T1 sequence: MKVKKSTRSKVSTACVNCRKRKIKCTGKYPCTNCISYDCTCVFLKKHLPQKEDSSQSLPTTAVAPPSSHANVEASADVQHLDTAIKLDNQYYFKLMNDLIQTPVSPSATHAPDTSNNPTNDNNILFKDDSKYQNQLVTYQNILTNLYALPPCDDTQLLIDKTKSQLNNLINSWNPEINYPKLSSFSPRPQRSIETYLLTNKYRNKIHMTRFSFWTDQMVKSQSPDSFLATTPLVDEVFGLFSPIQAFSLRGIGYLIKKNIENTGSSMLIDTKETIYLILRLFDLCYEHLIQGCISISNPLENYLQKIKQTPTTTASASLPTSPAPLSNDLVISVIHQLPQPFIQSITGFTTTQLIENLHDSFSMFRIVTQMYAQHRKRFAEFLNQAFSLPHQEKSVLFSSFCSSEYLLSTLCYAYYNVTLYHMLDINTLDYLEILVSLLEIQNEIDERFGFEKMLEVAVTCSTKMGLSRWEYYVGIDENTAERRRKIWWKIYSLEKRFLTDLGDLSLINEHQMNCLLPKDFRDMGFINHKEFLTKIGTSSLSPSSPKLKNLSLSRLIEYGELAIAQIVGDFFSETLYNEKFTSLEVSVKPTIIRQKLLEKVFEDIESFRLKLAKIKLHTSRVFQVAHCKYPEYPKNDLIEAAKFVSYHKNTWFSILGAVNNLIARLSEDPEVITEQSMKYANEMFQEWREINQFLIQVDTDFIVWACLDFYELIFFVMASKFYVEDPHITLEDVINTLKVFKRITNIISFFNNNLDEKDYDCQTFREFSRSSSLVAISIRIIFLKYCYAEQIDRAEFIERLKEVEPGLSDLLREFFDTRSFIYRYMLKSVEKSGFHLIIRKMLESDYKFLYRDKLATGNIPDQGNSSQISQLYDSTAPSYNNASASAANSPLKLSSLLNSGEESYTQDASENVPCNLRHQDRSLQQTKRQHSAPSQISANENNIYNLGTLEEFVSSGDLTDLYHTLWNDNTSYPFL
# Assay: PBM E-score (8-mer binding enrichment) (E-score (-0.5 to 0.5)); higher = stronger / more preferred TF binding; most listed sequences are background and not binding sites
# Details: protein concentration: 200 nM; construct: GST-full length
# Method in brief: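 Universal all-10-mer Agilent arrays, double-stranded by primer extension on fresh or once-stripped slides, were probed with about 100-200 nM GST-tagged yeast transcription factors made by PURExpress. Fluorescent anti-GST detected bound protein, and masliner normalised the scans. E-scores from the Universal PBM Analysis Suite were given to each ungapped eight-base word pooled with its reverse complement.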
row,Sequence,PBM E-score
1,CCCGGAGA,0.387
2,CGTGAAAA,0.0541
3,GCTGACGA,-0.203
4,ATCAGGGC,-0.117
5,CTTCATCA,0.0769
6,CGATAGGC,-0.216
7,AGGGACTA,-0.133
8,ATGGTGAC,-0.245
9,CAGAACTC,-0.0575
10,AATGATGG,0.102
11,AATTCCCG,0.298
12,CAAGAATG,0.0114
13,GATAACAC,0.0362
14,AGGTATCC,0.166
15,ACATACAC,-0.0402
16,CGTTTACC,-0.016
17,GATCCAAC,0.0435
18,CTGAGCAG,-0.103
19,CTTACAAC,-0.202
20,AACGCCGC,0.163
21,CCCTATAG,-0.0512
22,GTAGTAAC,-0.0648
23,CACAAGGA,-0.0715
24,ACTGGGGG,-0.231
25,AATTGCGG,0.155

row,Sequence,PBM E-score
1,GTTCGAGA,-0.046
2,ATAAAGCC,-0.122
3,AACTTCCT,-0.108
4,CAGTAGAA,-0.203
5,CGGGTGAC,0.249
6,GCGACGCC,0.153
7,AGAATATG,0.103
8,GCCGTCAC,0.217
9,CTATTCTA,-0.0816
10,AGTAACGG,0.134
11,GGGATCAC,-0.0461
12,CGGCCCTC,0.0254
13,CCGATAGC,0.059
14,AGGAGTAT,-0.226
15,AGATAGCC,-0.018
16,CGCAGACC,0.00034
17,ATCTTCTG,-0.0223
18,CCCGACGC,0.22
19,AAGAAGAC,-0.14
20,CAGAATTC,-0.0204
21,AACCCACA,-0.109
22,CCCGATCA,0.0819
23,CACAGTGG,-0.0483
24,GGACCGAC,0.212
25,AACATGGA,-0.0225

row,Sequence,PBM E-score
1,GGGATAGA,-0.029
2,GATGTGCC,-0.0568
3,GACCTGGC,0.0511
4,GGTGTTAC,-0.041
5,AACACGAC,-0.0949
6,AATCTCAA,0.073
7,CCACCTCA,-0.13
8,ACTTAGCA,-0.148
9,GAGCTTCC,0.309
10,CACCGCAA,0.143
11,GCTCCTCC,-0.156
12,AGACAAAA,-0.0462
13,ATGCTGGA,-0.129
14,GCACTCGC,0.121
15,GCAGCGGA,0.332
16,AAGTGACA,-0.0683
17,GCTAGCAC,-0.136
18,TACCCATA,-0.263
19,GGGTGTGA,-0.0882
20,CCTCCGCA,0.00168
21,CATCCATA,-0.128
22,CACAGGAA,0.101
23,ACAATCGG,0.288
24,GCATTGAC,-0.205
25,AGTAACTG,-0.23

row,Sequence,PBM E-score
1,ACGGACAA,0.351
2,AGCAAACT,0.0227
3,CGTGTTGC,0.0931
4,CGATCGCG,0.19
5,ACTTTTTC,-0.0415
6,CAGCCTCA,-0.164
7,AAAATAGC,-0.151
8,CACTTATC,-0.126
9,CTGGGCAA,0.0326
10,ACTGGTAG,-0.13
11,CAATTTAA,-0.093
12,ACGACTTC,-0.174
13,GGCGTACA,-0.187
14,ATATTCAC,0.0248
15,CCACGTCC,-0.0345
16,CGGTTCTC,0.0124
17,CCGCTACG,0.00508
18,GAGGCACC,-0.206
19,ACCTGTTG,-0.0894
20,CAAGGGGC,0.046
21,AAGACGCG,0.0421
22,ACATCCGA,0.259
23,TAATGACA,-0.0988
24,ACACAATG,-0.0193
25,ATCTAACA,-0.11

row,Sequence,PBM E-score
1,ATGGAGCG,0.0393
2,CGGCGGTA,0.323
3,GGGAAGGA,-0.00585
4,GTTATAGA,-0.235
5,AAAAAATG,0.0704
6,CCAACGGC,-0.0155
7,AACTCACG,-0.0378
8,TAGTGAGA,-0.105
9,TAGTTCAA,-0.0367
10,CCTATACG,-0.285
11,AGTGGTCG,0.0108
12,GGAGTCCC,0.081
13,GACCTTAC,0.0765
14,CGTGAATA,0.0178
15,CGGATTAG,0.175
16,GCGGCTGA,-0.00796
17,TCCGCAAA,0.328
18,AACGTCCA,-0.136
19,AAGATCTA,-0.121
20,CCCTATAC,0.00357
21,CCCGGTGC,0.215
22,ATTGGCGG,-0.00314
23,ACCCCAAG,-0.0627
24,ATCGGACA,0.221
25,CGGAAGCA,0.428

row,Sequence,PBM E-score
1,TGGTGACA,-0.114
2,CCAGACAG,-0.131
3,ATCGCGAT,0.209
4,ATCTCTGG,-0.134
5,CGCTGGTC,-0.0335
6,AGGTGTAA,-0.211
7,AAGTACCC,-0.085
8,CATATATC,-0.0239
9,ATCTGGCG,0.0115
10,ACTCGTAA,0.0255
11,CCTGTTAG,-0.111
12,GAGGCGGA,0.175
13,CCAACAGC,0.00648
14,CGTGATTC,0.0803
15,ACGGGGGC,-0.0193
16,TCGCCACA,-0.00326
17,CATAGTAA,-0.0298
18,CCTTTGAA,-0.157
19,GGGGCCGA,-0.154
20,CTGTGGCA,-0.103
21,TAGATCCA,-0.0974
22,AAGGTACT,-0.0597
23,ACTATCAC,-0.18
24,CAAAGTGC,-0.129
25,GATCCTAC,0.0778

row,Sequence,PBM E-score
1,ACTCCCCT,0.0508
2,CGCCACAA,-0.0528
3,GAGCGCCC,0.041
4,CACAATTC,0.0723
5,TACATAAA,-0.186
6,GAGAATGC,-0.0223
7,CCCCAAGC,0.102
8,CGGCCGAG,0.322
9,ACAACGCC,0.0246
10,TCAATAGA,-0.262
11,CCTAGGGA,-0.108
12,ATGGCCTC,0.0436
13,AACCGAGC,0.111
14,AGCGAGTC,-0.102
15,AGTGCAAG,-0.0678
16,GCCCACGA,-0.188
17,GTGCGATA,-0.0185
18,ACTATGTA,-0.181
19,ATGACTTG,0.00252
20,ACTCCAAT,-0.00392
21,GCGTGAAA,-0.0621
22,TCCTCCAA,-0.102
